Assay results published in ChEMBL document CHEMBL1201862, “PubChem BioAssay data set” (2004).
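In this assay, cells in 96-well plates receive the compound at five concentrations for 48 hours. Endpoints are linearly interpolated between the surrounding concentrations. GI50 = concentration required for 50% inhibition of growth.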 Active and inactive are the calls of the source. No stated cut-off is given here; in the data, active = GI50 up to about 1.1 µM and inactive = higher.

Each compound was assayed on NCI-H322M (assay: growth of human tumour cells (NCI), 48 h).
With `C[As+](C)(c1ccc(Br)c([N+](=O)[O-])c1)c1ccc(Br)c([N+](=O)[O-])c1` the GI50 was inactive: > 100 µM. `CN(C)CCC(=O)N1C/C(=C/c2ccccc2)C(=O)/C(=C\c2ccccc2)C1` was tested, and the GI50 was inactive: 2.02 µM. With `Cc1c2ccncc2cc2c1[nH]c1ccccc12` the GI50 was inactive: 3.05 µM. For `COC(=O)/C(=N\N)C(C(=O)C(=O)Nc1nnc(S)[nH]1)c1nc2ccc([N+](=O)[O-])cc2nc1O` (stereo not drawn), the GI50 was inactive: > 100 µM. With `CCCCCCc1nn2c(-c3ccncc3)nnc2s1` the GI50 was inactive: > 10 µM. In the case of `Cc1cc2c(C(C)C)c(O)c(O)c(/C=N/c3cc(C(F)(F)F)ccc3Cl)c2c(O)c1-c1c(C)cc2c(C(C)C)c(O)c(O)c(/C=N/c3cc(C(F)(F)F)ccc3Cl)c2c1O`, the GI50 is reported as inactive: > 100 µM. With `COC(Cc1cc(C(O)(c2ccc(C(C)(C)C)cc2)c2cc(CC(OC)(c3cc(C(OC)(c4ccc(C(C)(C)C)cc4)c4ccc(C(C)(C)C)cc4)c(C)cc3C)c3cc(C(OC)(c4ccc(C(C)(C)C)cc4)c4ccc(C(C)(C)C)cc4)c(C)cc3C)c(C)cc2C)c(C)cc1C)(c1cc(C(OC)(c2ccc(C(C)(C)C)cc2)c2ccc(C(C)(C)C)cc2)c(C)cc1C)c1cc(C(OC)(c2ccc(C(C)(C)C)cc2)c2ccc(C(C)(C)C)cc2)c(C)cc1C` the GI50 was inactive: > 75 µM. For `C=CCCC(=O)C(=[N+]=[N-])C(=O)CCC(=O)c1ccccc1`, the GI50 was inactive: > 10 µM. With `O=C(C[n+]1ccc2ccccc2c1)c1ccc2ccc3ccccc3c2c1` the GI50 was inactive: 3.24 µM. In the case of `Nc1nc(Cl)cc(NCCCCCCCCCCCCNc2cc(Cl)nc(N)n2)n1`, the GI50 is reported as inactive: > 100 µM. `O=C1c2ccccc2C(=O)c2c1ccc(C1C(=O)c3ccccc3C1=O)c2-c1c(C2C(=O)c3ccccc3C2=O)ccc2c1C(=O)c1ccccc1C2=O` was tested, and the GI50 was inactive: > 100 µM. `CSc1nc(NC2OCC(OC(C)=O)C(OC(C)=O)C2OC(C)=O)c(/N=C\C=N\c2c(NC3OCC(OC(C)=O)C(OC(C)=O)C3OC(C)=O)nc(SC)[nH]c2=O)c(=O)[nH]1` (stereo not drawn) was tested, and the GI50 was inactive: > 85.9 µM. With `CCCNC(=O)Cn1c(-c2ccccc2)cc2ccccc21` the GI50 was inactive: > 100 µM. `CC(=O)CCN1CC2CN=NC2(C#N)C1` (stereo not drawn) was tested, and the GI50 was inactive: > 100 µM. For `[N-]=[N+]=Nc1c([N+](=O)[O-])c(=O)n(-c2ccccc2)c2ccccc12`, the GI50 was inactive: 21.4 µM. `NNc1nncc2[nH]nnc12` was tested, and the GI50 was inactive: > 100 µM. In the case of `O=C1OC(C2(O)OC(=O)c3ccccc32)c2ccccc21` (stereo not drawn), the GI50 is reported as inactive: > 100 µM. With `C/C=C/C(CC(O)(C(F)(F)F)C(F)(F)F)=N/NC(N)=S` the GI50 was inactive: > 10 µM. In the case of `Cc1nc(Nc2ccc(Cl)cc2)sc1C(=O)NNc1ccc([N+](=O)[O-])cc1[N+](=O)[O-]`, the GI50 is reported as inactive: 18.4 µM. With `NC1=C(N2CCCCC2)C(=O)NC2=N/C(=C\c3ccco3)C(=O)N21` the GI50 was inactive: > 100 µM. `Nc1nc2c(nnn2C2C=C(CO)C(O)C2O)c(=O)[nH]1` (stereo not drawn) was tested, and the GI50 was inactive: > 100 µM. For `CC[C@@]1(O)C[C@H](OC2CC(N(C)C)C(O)C(C)O2)c2c(cc3c(c2O)C(=O)c2c(O)ccc(O)c2C3=O)[C@H]1C(=O)OC` (stereo partly drawn), the GI50 was active: 0.0424 µM. With `CCN(CC)CCSc1nc2cccc([N+](=O)[O-])c2[nH]1` the GI50 was inactive: > 100 µM. `CC1CCC2C(C)C(=O)OC2C2(C)C(=O)C=CC12` (stereo not drawn) was tested, and the GI50 was inactive: > 10 µM. `COc1ccc(CNC(=O)[C@H](Cc2ccc(O)cn2)NC(C)=O)cc1` was tested, and the GI50 was inactive: > 100 µM. In the case of `CCOC(OC1=C(C#N)CCC1)C(C)[Se]c1ccccc1` (stereo not drawn), the GI50 is reported as inactive: > 100 µM. `O=C1/C(=C/c2ccc(O)cc2)CCC1CNc1ccccc1` (stereo not drawn) was tested, and the GI50 was inactive: 13.4 µM. With `CC(C)(C)C1=CC(O)(c2c3ccccc3c(C3(O)C=C(C(C)(C)C)C(=O)C(C(C)(C)C)=C3)c3ccccc23)C=C(C(C)(C)C)C1=O` the GI50 was inactive: > 100 µM. With `CCCCCCCCCCCCOC1C(COCCN2CCCCC2)OC2OC(C)(C)OC21` (stereo not drawn) the GI50 was inactive: 5.73 µM. `COc1ccc(C2=C(N)c3ncccc3C2=O)cc1` was tested, and the GI50 was inactive: > 100 µM. For `COC(=O)C(=O)C(C(=O)OC)C(=O)C(=O)Nc1c(C)cccc1C` (stereo not drawn), the GI50 was inactive: > 100 µM. `Cn1nnnc1SC(F)(F)c1nc2ccccc2o1` was tested, and the GI50 was inactive: > 100 µM. With `Cc1cc(O)c(C(c2ccncc2)c2c(O)cc(C)[nH]c2=O)c(=O)[nH]1` the GI50 was inactive: > 100 µM. For `S=C(/N=c1/sc(Nc2ccccc2)nc2sc3c(c12)CCCC3)Nc1ccccc1`, the GI50 was inactive: > 62.5 µM. With `CC(C)(CN1CCCCC1)C(/C=C/c1ccc(Cl)c(Cl)c1)=N\NC(=O)N/N=C(/C=C/c1ccc(Cl)c(Cl)c1)C(C)(C)CN1CCCCC1` the GI50 was inactive: 1.78 µM. With `O=C1C([N-]S(=O)(=O)c2ccccc2)=C([n+]2ccc(Cc3ccccc3)cc2)C(=O)c2ccccc21` the GI50 was inactive: 1.7 µM. For `CC12CCC(CC1(Cl)Cl)C2` (stereo not drawn), the GI50 was inactive: > 100 µM. In the case of `COC(=O)c1cccc(C)c1C1CN=NC12Cc1cc(C)cc(C)c1C2=O` (stereo not drawn), the GI50 is reported as inactive: 81.8 µM. In the case of `CCCCCCCCCCCc1noc2c1C(=O)C(O)CC2` (stereo not drawn), the GI50 is reported as inactive: 76.9 µM. `CN(C)CCNC(=O)c1cccc2cc3cc(O)ccc3nc12` was tested, and the GI50 was inactive: 1.73 µM. In the case of `CCCCc1c(C(=O)OC(C)(C)C)cc(C#Cc2cc(C(=O)OC(C)(C)C)c(CCCC)c(C(=O)OC(C)(C)C)c2)cc1C(=O)OC(C)(C)C`, the GI50 is reported as inactive: > 100 µM. For `Cc1cn(C2CC(N=[N+]=[N-])C(COP(=O)(O)OCC3OC(n4cc(F)c(=O)[nH]c4=O)CC3O)O2)c(=O)[nH]c1=O` (stereo not drawn), the GI50 was inactive: > 100 µM. With `C/C=C1\CC(C(=O)OCC)CCCCCCCCCCC1=O` (stereo not drawn) the GI50 was inactive: > 100 µM. `COC(=O)c1cccc2cccc(C(=O)Nc3ccc(C)cc3C)c12` was tested, and the GI50 was inactive: > 100 µM. `N#Cc1c(NC(=S)NCc2ccccc2)sc2c1CCN(N1CCc3c(sc(NC(=S)NCc4ccccc4)c3C#N)C1)C2` was tested, and the GI50 was inactive: > 100 µM. In the case of `CCOC(=O)CCC(NC(=O)OCc1ccccc1)C(=O)NC(CCC(=O)OCC)C(=O)NC(CCC(=O)OCC)C(=O)NC(CCC(=O)OCC)C(=O)NC(CCC(=O)OCC)C(=O)OCC` (stereo not drawn), the GI50 is reported as inactive: > 100 µM. `CNc1cc2oc(=O)cc(C)c2cc1C` was tested, and the GI50 was inactive: > 100 µM. With `N#CCCC(C#N)(C#N)CCC#N` the GI50 was inactive: > 100 µM. `N/C(=N\c1ccc(Cl)cc1)NS(=O)(=O)c1ccc(-c2ncccc2C(F)(F)F)s1` was tested, and the GI50 was inactive: 13.2 µM. In the case of `CC(=O)OCC1OC(N2C(=O)/C(=C\c3ccc(Cl)cc3)C(N)=Nc3ccccc32)C(OC(C)=O)C(OC(C)=O)C1OC(C)=O` (stereo not drawn), the GI50 is reported as inactive: 39.4 µM. In the case of `Cc1ccc2occ/c(=N\Nc3ccccc3)c2c1`, the GI50 is reported as inactive: 52.5 µM. For `BrCc1ccc(CBr)c2c1-c1c(CBr)ccc3ccc(CBr)c-2c13`, the GI50 was inactive: > 100 µM. `CC(C)C.C[N+](C)(C)C.OC(c1ccccc1)(C(F)(F)F)C(F)(F)F.OC(c1ccccc1)(C(F)(F)F)C(F)(F)F.[SiH3-]` was tested, and the GI50 was inactive: 12.3 µM. With `O=C1Cc2c([nH]c3c(Cl)cccc23)-c2ccccc2N1` the GI50 was inactive: > 100 µM. `CC(=O)OC1CCC2(C)C(CCC3C2CCC2(C)C(c4ccc(=O)oc4)C(OC(C)=O)CC32O)C1` (stereo not drawn) was tested, and the GI50 was active: 0.0125 µM. `c1ccc([P+](Cc2ccc(C[P+](c3ccccc3)(c3ccccc3)c3ccccc3)s2)(c2ccccc2)c2ccccc2)cc1` was tested, and the GI50 was inactive: > 100 µM. In the case of `CCN(CC)CCNc1ccc2nnn3c4ccccc4c(=O)c1c23`, the GI50 is reported as inactive: 2.71 µM. In the case of `CN(C)Cc1cc(C(=O)/C=C/c2c(Cl)cccc2Cl)cc(CN(C)C)c1O`, the GI50 is reported as inactive: 11.5 µM.
